# Assay results published in the supplement of paper PMC3334620.
# In all, about 33,000 sequences were measured (“E-score (-0.5 to 0.5)”: median about -0.054, highest 2% from about 0.39 on). Some of the results follow.
# Biological target: Ylr278c (UniProt Q05854)
# Experiment: PBM E-score (8-mer binding enrichment) (E-score (-0.5 to 0.5)); higher = stronger / more preferred TF binding; most listed sequences are background and not binding sites
# Settings: protein concentration: 200 nM; construct: GST-DNA-binding domain
# Outline: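 Universal all-10-mer Agilent arrays, double-stranded by primer extension on fresh or once-stripped slides, were probed with about 100-200 nM GST-tagged yeast transcription factors made by PURExpress. Fluorescent anti-GST detected bound protein, and masliner normalised the scans. E-scores from the Universal PBM Analysis Suite were given to each ungapped eight-base word pooled with its reverse complement.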
row,Sequence,PBM E-score
1,AACTAATG,-0.0302
2,AACGGTGT,-0.018
3,GCAGTGAA,-0.0995
4,CAGTACTC,-0.106
5,CACACATA,-0.14
6,CTGTGCAA,-0.289
7,CCGTGACC,0.159
8,AGGCTCTC,-0.21
9,CCCTAGTC,-0.368
10,CCACCGTA,-0.109
11,GAAGGCTC,-0.0768
12,CTGACGCA,-0.165
13,CACATGAA,-0.2
14,ATAAGAAC,-0.0268
15,TCTTCGAA,-0.132
16,CTAAGAAC,0.0915
17,AACTTATA,0.0873
18,ATCAGCGG,0.29
19,CAGCACGG,0.0262
20,ACGAGTAG,-0.0549
21,AATTTGCC,0.132
22,CTTCGACC,-0.105
23,ATACCAAT,0.0722
24,CAATGCCG,0.365
25,GATTAGCC,0.00707

row,Sequence,PBM E-score
1,TATTCTCA,-0.171
2,AAATACGG,0.14
3,AACTTCGA,-0.11
4,CTCAGATA,-0.125
5,AGAACGTG,0.00792
6,AATAACAT,-0.0376
7,CTTATTGC,-0.0902
8,AAGTATGT,-0.258
9,CAGGCGCA,-0.0163
10,AGCAGTGC,-0.258
11,TTGCGCAA,0.0798
12,TAGGCGGA,0.303
13,CGGTGGGC,0.222
14,CAACCTTG,-0.0731
15,AATTTACT,-0.0328
16,TAGGGTCA,-0.244
17,ACATCGAC,-0.114
18,CCCGGACG,0.273
19,ATCACCAA,-0.161
20,AGACCGCC,0.0855
21,CGCATTTA,0.145
22,CCCAGAGG,-0.151
23,ATCCCACC,0.224
24,AGGCGCAA,0.0538
25,TTCCGCAA,0.298

row,Sequence,PBM E-score
1,ATCCGAAG,0.301
2,ATATCCCG,0.341
3,CATAGTAC,-0.137
4,GAACCCTC,0.0374
5,GGTTCCGA,0.384
6,CTTGTAGA,-0.236
7,CGAACTAG,-0.0176
8,CAGTTTCA,-0.195
9,CGTCTATC,0.0841
10,GTACCCAC,0.181
11,GTTTGCTA,-0.0641
12,CCACTATC,0.00626
13,GTAACATA,-0.0365
14,CTTCCGCC,0.343
15,ATCATTGA,-0.107
16,GTATGACA,0.031
17,ATGAGAGC,-0.174
18,GAACTTAA,-0.00771
19,TTAACGAA,-0.0862
20,AGGCACGC,0.00505
21,AGACGTGC,-0.154
22,AGCCTGTA,-0.224
23,GCGTAAGA,0.138
24,AACGGAGG,0.3
25,AAAATCCA,-0.0177

row,Sequence,PBM E-score
1,GACTACCC,-0.0131
2,AATAGGCG,0.201
3,AACTCTGT,-0.0821
4,CGCCTACC,-0.0195
5,ACCATCAC,-0.082
6,GCGAACTA,0.0457
7,AGCATTGC,-0.106
8,GGGTACAA,-0.103
9,CGGCAAAG,0.26
10,ACGTTTCA,-0.0571
11,CGACCGGC,0.248
12,AAACATCT,-0.0887
13,GGTATCCA,0.00177
14,AACTAGCA,-0.0137
15,GTTGGTCA,-0.0823
16,ACATCCTG,0.0591
17,AGTAATCG,0.141
18,AGACTGCT,-0.29
19,AGATCTGC,-0.174
20,GCGTTCCC,0.13
21,GTCCTACA,0.0669
22,ACTTGATC,-0.133
23,GGACGTTA,0.0515
24,AGCATAAG,-0.00434
25,AATCTGTA,-0.057

row,Sequence,PBM E-score
1,ATCACATC,-0.0352
2,CAACGGGG,0.00195
3,CCGTCAAG,0.18
4,AACAATAA,0.0704
5,ATCACCAT,0.0294
6,CATTTAAC,-0.136
7,CCCAAGGA,-0.0659
8,CTCGCCAC,0.0357
9,GTATCGAC,-0.117
10,ATTCACCG,0.304
11,GCAACACA,-0.0231
12,AACCATGT,-0.0962
13,ACCGAATG,-0.00202
14,AAACGCCG,0.412
15,AGTCTAAC,-0.13
16,ACCTCTGA,-0.0775
17,GAGAGGGC,-0.151
18,AACCTGGC,-0.148
19,CGAGATGA,0.0382
20,CCCCTGGC,-0.054
21,CAGTGAAG,-0.229
22,ATCTTGGG,-0.119
23,GTAGAGTA,-0.219
24,GGTCACAA,-0.184
25,GACTAATC,0.171

row,Sequence,PBM E-score
1,GTCCCAAC,-0.209
2,CAAGGTGC,0.0222
3,ACTAATTC,0.0457
4,AAAGGCCC,-0.0211
5,AGCATTCA,-0.164
6,GATGCATC,0.121
7,ATCCATAA,0.0106
8,AGTGATTC,-0.154
9,ACGGTAAT,0.00092
10,ACATCAGA,-0.223
11,AACTCGGG,0.182
12,AGATGTCG,-0.0161
13,ACCCGCGA,-0.00707
14,CATGGTCG,-0.00982
15,GGCAACCC,-0.0105
16,AGGCGGCA,0.00545
17,CCTAAGAC,-0.228
18,CAACACTA,-0.00728
19,AACACATT,-0.056
20,AGTTGTCG,0.0744
21,GAAATGGA,0.0716
22,ACTATGCT,-0.144
23,ACAAGGCG,0.0356
24,TCGCGCAA,0.0618
25,TTAAATAA,0.118

row,Sequence,PBM E-score
1,CGTGGAGC,0.0622
2,CAGGAATG,-0.264
3,ATCCGTAA,0.155
4,GAGCAGAA,-0.0303
5,CGCGCCTA,0.16
6,GGATAGGA,0.0107
7,ACTTGGAT,-0.121
8,TGAGTAAA,-0.173
9,AAAAAAAT,0.0804
10,TGGTAACA,-0.169
11,GAAAACGA,-0.00859
12,CTCAGAGC,-0.346
13,AAATTACC,0.0177
14,AGAGTAGC,-0.209
15,GAGAAAAC,0.0753
16,AATATAGT,-0.0246
17,ATATGAAA,-0.0164
18,ATAATTGG,-0.0418
19,TATCAGAA,0.0195
20,CTGCAGTC,-0.196
21,TCCGACCA,0.331
22,ATAACCGG,0.306
